In US11178870B2 (priority 2017, dated 2021):

Tests used:
Magnaporthe grisea = assay type: in vivo; details: Table 7, Test A
Phytophthora infestans = assay type: in vivo; details: Table 7, Test F
[1] = tested on: Colletotrichum orbiculare; details: 250 ppm sprayed (2.5 ml/pot) before inoculation; assessed 6 to 10 days after inoculation

Structure (SMILES)	control value, Test A (blast on rice) (Magnaporthe grisea)	control value, Test F (late blight on tomato) (Phytophthora infestans)	control value, Test H (anthracnose on cucumber) [1]
O=c1c(Br)cc(-c2ccsc2Br)c(-c2c(F)cccc2F)n1CC(F)F [Compound 346]	H (H shows the control value more than 50%)	L (L shows the control value of 50% or less)	H (H shows the control value more than 50%)
O=c1ccc(-c2cc(Cl)sc2Br)c(-c2c(F)cccc2F)n1CC(F)F [Compound 348]	H (H shows the control value more than 50%)	L (L shows the control value of 50% or less)	L (L shows the control value of 50% or less)
CCn1c(-c2ccccc2Br)c(-n2cc(F)cn2)cc(Br)c1=O [Compound 358]	H (H shows the control value more than 50%)	–	–
